The source of these data is the supplement of paper PMC10037445.

Test [1] has as its system RAW-Dual. The test is described as follows: IRF Lucia reporter activity, fold change vs agonist alone; cytotoxicity flag (confluency mask): not cytotoxic; higher = enhanced IRF activity. Summed up: (§1)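 After 50 nL of library stock was delivered by pin tool to RAW-Dual macrophages (50,000 cells/well, DMEM, 384-well plates), a PRR agonist was added 1 h later and the plates were kept at 37 °C, 5% CO2. Twenty hours later, IRF was read from supernatant by QuantiLuc luminescence and NF-κB by QuantiBlue absorbance at 620 nm. Reporter activity is stated as fold change over agonist-alone wells. Wells with IncuCyte confluency under 70% of agonist controls in both mask sets were counted as cytotoxic.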

The test system of test [2] is RAW-Dual. As to the kind of experiment: IRF Lucia reporter activity, fold change vs agonist alone; higher = enhanced IRF activity. To be noted: library stock concentration (final ~1000-fold dilution): 10 mM, agonist: MPLA (TLR4) […]. Summed up:
as §1

Test [3] relates to RAW-Dual. The test is described as follows: IRF Lucia reporter activity, fold change vs agonist alone; cytotoxicity flag (confluency mask): cytotoxic (confluency <70% of control); higher = enhanced IRF activity. Summed up:
as §1

Where [4] appears, read: agonist: 3'3'-cGAMP (STING) 10 ug/mL.
[5] abbreviates: cytotoxicity flag (confluency mask): not cytotoxic.

Structures are written as SMILES. Whole data set: some 2,900 compounds, median “IRF Lucia reporter activity, fold change vs agonist alone” near 0.9, cut for the highest 2% near 2.8. The list shows a part of the results.

Consider `COc1ccc(-c2cc3nccn3c(Nc3ncccc3C(N)=O)n2)cc1OC.Cl.Cl` (library stock concentration (final ~1000-fold dilution): 10 mM), for which the “IRF Lucia reporter activity” value in the test with RAW-Dual [1] (setting [4]) worked out at 0.153; with RAW-Dual [1] (agonist: LPS (TLR4) 0.1 ug/mL), 0.134.

On to `COc1ccc(-c2cc3nccn3c(Nc3ncccc3C(N)=O)n2)cc1OC.Cl.Cl`, for which the “IRF Lucia reporter activity” value with RAW-Dual [2] (setting [5]) came to 0.124.

As for `CCOC(=O)c1ccc(NC2CCCCC2)c(N)c1`, the “IRF Lucia reporter activity” value in the test with RAW-Dual [2] (setting [5]) stood at 1.83.

On to `CCOC(=O)c1ccc(NC2CCCCC2)c(N)c1` (library stock concentration (final ~1000-fold dilution): 10 mM), for which the results for the “IRF Lucia reporter activity” value with RAW-Dual [1] (setting [4]) and with RAW-Dual [1] (agonist: LPS (TLR4) 0.1 ug/mL) were 1.04 and 4.71, respectively.

On to `CCOC(=O)C1=C(C)NC(C)=C(C(=O)OC)C1c1cccc(Cl)c1Cl` (stereo not drawn), for which the “IRF Lucia reporter activity” value in the test on RAW-Dual [2] (setting [5]) turned out to be 1.08.

For `CCOC(=O)C1=C(C)NC(C)=C(C(=O)OC)C1c1cccc(Cl)c1Cl` (stereo not drawn) (library stock concentration (final ~1000-fold dilution): 10 mM), the “IRF Lucia reporter activity” value with RAW-Dual [1] (setting [4]) came to 1.31; in the test on RAW-Dual [1] (agonist: LPS (TLR4) 0.1 ug/mL) it was 1.17.

In the case of `CN1CCN(Cc2ccc(-c3cnc4[nH]cc(-c5ccc6[nH]ccc6c5)c4c3)cc2)CC1`, in the test with RAW-Dual [2] (setting [5]), the “IRF Lucia reporter activity” value worked out at 0.0141.

In the case of `CN1CCN(Cc2ccc(-c3cnc4[nH]cc(-c5ccc6[nH]ccc6c5)c4c3)cc2)CC1` (library stock concentration (final ~1000-fold dilution): 10 mM), the figures for the “IRF Lucia reporter activity” value in the test on RAW-Dual [1] (setting [4]) and in the test with RAW-Dual [1] (agonist: LPS (TLR4) 0.1 ug/mL) were 0.00761 and 0.0167, respectively.

Take `Cc1cc(O)c(-c2ccc(C(C)CN(C)C)cc2)c2c1[nH]c(=O)c1sccc12.Cl.Cl` (stereo not drawn) (library stock concentration (final ~1000-fold dilution): 10 mM): the entries for the “IRF Lucia reporter activity” value with RAW-Dual [3] (setting [4]) and in the test with RAW-Dual [3] (agonist: LPS (TLR4) 0.1 ug/mL) were 0.0135 and 0.163, respectively.

In the case of `CC(OC1OCCN(Cc2n[nH]c(=O)[nH]2)C1c1ccc(F)cc1)c1cc(C(F)(F)F)cc(C(F)(F)F)c1` (stereo not drawn), the “IRF Lucia reporter activity” value with RAW-Dual [2] (setting [5]) amounted to 0.817.

In the case of `CC(OC1OCCN(Cc2n[nH]c(=O)[nH]2)C1c1ccc(F)cc1)c1cc(C(F)(F)F)cc(C(F)(F)F)c1` (stereo not drawn) (library stock concentration (final ~1000-fold dilution): 10 mM), the entries for the “IRF Lucia reporter activity” value in the test with RAW-Dual [1] (setting [4]) and in the test on RAW-Dual [1] (agonist: LPS (TLR4) 0.1 ug/mL) were 1.12 and 0.857, respectively.

With `CCCCCCCCOc1ccccc1C(=O)Nc1ccc(C(=O)OCC[N+](C)(CC)CC)cc1`, the “IRF Lucia reporter activity” value in the test with RAW-Dual [2] (cytotoxicity flag (confluency mask): cytotoxic (confluency <70% of control)) was determined as 1.43.

Turning to `CCCCCCCCOc1ccccc1C(=O)Nc1ccc(C(=O)OCC[N+](C)(CC)CC)cc1` (library stock concentration (final ~1000-fold dilution): 10 mM), the “IRF Lucia reporter activity” value amounted to 0.662 with RAW-Dual [3] (setting [4]) and 0.688 in the test with RAW-Dual [3] (agonist: LPS (TLR4) 0.1 ug/mL).

Regarding `CC(C)(C)NC(=O)NC(C(=O)N1CC2C(C1C(=O)NC(CC1CCC1)C(=O)C(N)=O)C2(C)C)C(C)(C)C` (stereo not drawn) (library stock concentration (final ~1000-fold dilution): 10 mM), the “IRF Lucia reporter activity” value was determined as 0.998 in the test on RAW-Dual [1] (setting [4]) and 1.05 in the test on RAW-Dual [1] (agonist: LPS (TLR4) 0.1 ug/mL).

In the case of `CC(C)(C)NC(=O)NC(C(=O)N1CC2C(C1C(=O)NC(CC1CCC1)C(=O)C(N)=O)C2(C)C)C(C)(C)C` (stereo not drawn), the “IRF Lucia reporter activity” value in the test on RAW-Dual [2] (setting [5]) amounted to 1.03.
